In PubChem BioAssay AID1508642 (National Center for Advancing Translational Sciences (NCATS), 2021):
Screen size: about 43,000 compounds; about 200 (0.47%) were called active. Inconclusive results (about 12%) are left out. The call rests on the fitted dose curve; in most records, active means well fitted cell-killing curve with a large enough effect; inconclusive means small, poorly fitted or top-dose-only effect, or effect the other way; inactive means flat fitted curve, though single readings scatter. The list shows a part of the results.

Test: Cell viability qHTS assay in S16 Pmp22-F2sN cells; further: nearly all actives have a fitted effect of over 65% in size
Conditions: S16 Pmp22-F2sN Schwann cells (luciferase reporters placed in the Pmp22 gene) viability, CellTiter-Glo, 24 h; series mostly up to 57.5 µM; activity change, negative = cytotoxicity: at the top concentration
Outline: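 CellTiter-Glo counter-screen, qHTS, 1536-well. Cells: S16(c9) Pmp22-F2sN, 500-1,000/well in DMEM + 10% FBS. Cpd 23 nL pin transfer, 24 h, 37C/5% CO2. Read: luminescence, CCD imager.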
On the % scale 0 is the no-effect control and ±100 the full control effect.

Row | Compound | activity change, negative = cytotoxicity
1 | CCOc1ccc(CCNC(=O)c2ccc(CSCc3ccccc3C)o2)cc1OCC | inactive: -4.01%
2 | COC(=O)c1c(NC(=O)c2ccc(C(C)(C)C)cc2)sc2c1CCC(C)C2 (centres undefined) | inactive: -10.1%
3 | COc1cc(C2CC(=O)c3c([nH]c(C(=O)OC4CCCC4)c3C)C2)cc(OC)c1OC (centres undefined) | inactive: -15.5%
4 | CCN(C(=O)Cn1nc(Cc2ccncc2)c2ccccc2c1=O)c1ccc(OC)cc1 | inactive: 2.14%
5 | CCOC(=O)c1c(NC(=O)COc2ccccc2)sc(C(C)=O)c1C | inactive: 20%
6 | CC1(C)CC(=O)c2cc(-c3nc(-c4ccc(F)cc4)cs3)c(=O)[nH]c2C1 | inactive: 3.1%
7 | CCN(C(=O)C(NS(=O)(=O)c1ccc(Br)s1)c1ccccc1)c1ccc(C)c(C)c1 (centres undefined) | inactive: -4.34%
8 | CC1=C(c2ccc(Cl)cc2)S(=O)(=O)N=C1N1CCN(c2cc(C)ccc2C)CC1 | inactive: -2.28%
9 | Cc1cc2[nH]c(=O)c(=O)[nH]c2cc1S(=O)(=O)N1CCN(c2ccccc2F)CC1 | inactive: 5.54%
10 | Cc1cc(C)cc(-n2c(SCC(=O)Nc3ccc4c(c3)OCO4)nc3c([nH]c4ccccc43)c2=O)c1 | inactive: 4.49%
11 | COc1ccc(CNC(=O)C(=O)NCC(c2cccnc2)N2CCN(c3ccccc3)CC2)cc1 (centres undefined) | inactive: -16%
12 | CCOC(=O)c1ccc(NC(=O)Cn2nc(C)c3nn(-c4ccc(Cl)cc4)c(C)c3c2=O)cc1 | inactive: -7.82%
13 | CCc1nc2nc(C)cc(Nc3cc(C)ccc3C)n2n1 | inactive: -2.79%
14 | Cc1cccc(N2CCN(C(=O)c3cnn(-c4ccccc4)c3C3CCN(C(=O)OC(C)(C)C)CC3)CC2)c1C | inactive: -4.34%
15 | CCOC(=O)c1c(NC(=O)C(C)Sc2cn(CCNC(=O)c3ccc(OCC)cc3)c3ccccc23)sc2c1CCC2 (centres undefined) | inactive: 24.9%
16 | CCOC(=O)c1c(S(=O)(=O)N2CCC(C(=O)NCc3ccccc3Cl)CC2)c(C)n(C)c1C | inactive: 9.21%
17 | COCCn1ccc2c(OCC(=O)Nc3cccc(C(F)(F)F)c3)cccc2c1=O | inactive: -4.64%
18 | COc1ccc(N2CC(NC(=O)C(c3ccccc3)c3ccccc3)CC2=O)cc1 (centres undefined) | inactive: -14.2%
19 | COc1cccc(CNC(=O)c2ccc3c(c2)sc2nc(-c4cccc(OC)c4)cn23)c1 | inactive: -13.8%
20 | Cc1nc2nc[nH]n2c(=O)c1NS(=O)(=O)c1ccc(Br)cc1 | inactive: -4.36%
21 | Cc1ccc(Nc2ncnc3c2nc2n3CCCC2)cc1F | inactive: -0.238%
22 | Cc1ccc2nc3c(cc(C(=O)NC4CCCC4)c(=N)n3C(C)C)c(=O)n2c1 | inactive: 14.5%
23 | CCC(Nc1ccc(-c2nc(-c3cccnc3)no2)cc1[N+](=O)[O-])c1ccccc1 (centres undefined) | inactive: 12.4%
24 | COc1ccc2[nH]cc(CCNC(=O)Nc3cc(C)cc(C)c3)c2c1 | inactive: 2.6%

Row | Compound | activity change, negative = cytotoxicity
25 | O=c1c2cccnc2n(Cc2cccc(F)c2)c(=O)n1Cc1ccc(F)cc1 | inactive: 18.6%
26 | CCOC(=O)c1c(-c2ccc(OC)c(OC)c2)csc1NC(=O)c1ccccc1F | inactive: 14.2%
27 | COc1ccccc1Nc1nc(-c2ccccc2)c(CC(=O)O)s1 | inactive: -4.43%
28 | COc1ccc2c(c1)c1c(c(=O)n(-c3cccc(C)c3)c(=O)n1CC(=O)NCCC1=CCCCC1)n2C | inactive: -6%
29 | Cc1cccc(CNS(=O)(=O)c2ccc(-c3coc(C)n3)cc2)c1 | inactive: -3.41%
30 | COc1ccc(S(=O)(=O)c2nnn(-c3cccc(Cl)c3)c2N)cc1 | inactive: 3.36%
31 | COc1cc(CNC(=O)c2cnc3c(-c4cccc(C)c4)c(C)nn3c2C)cc(OC)c1OC | inactive: -0.463%
32 | COc1ccc(-c2cc3ccc(O)c(CN4CCN(C)CC4)c3oc2=O)cc1OC | inactive: -4.32%
33 | CCOCCOC(=O)c1ccc2c(c1)N(Cc1ccccc1C#N)C(=O)c1ccccc1S2(=O)=O | inactive: 0.112%
34 | CCc1ccc(C(=O)COC(=O)C(NC(=O)C2CCC(C)CC2)C(C)C)cc1 (centres undefined) | inactive: 11.5%
35 | Nc1cc(=O)nc(SCC(=O)Nc2ccccc2)n1CCc1ccccc1 | inactive: 20.2%
36 | O=C(NC1CC(=O)N(c2ccc(Cl)cc2)C1)c1cc2ccccc2o1 (centres undefined) | inactive: 3.94%
37 | CC(=O)Nc1ccc(Nc2ccc3cc(S(=O)(=O)N4CCCCC4)ccc3n2)cc1 | inactive: -26%
38 | CCCc1ccc(OCC(=O)Nc2sc3c(c2C(=O)OCC)CCC(C(C)(C)C)C3)cc1 (centres undefined) | inactive: -0.69%
39 | COc1ccc(N(CC(=O)NCCc2ccccc2)S(=O)(=O)c2c(C)nn(C)c2C)cc1 | inactive: 5.09%
40 | COc1ccc(-n2c(=O)c3c4c(sc3n(Cc3ccccc3C)c2=O)CCCC4)c(OC)c1 | inactive: -6.17%
41 | CCc1cccc(NC(=O)C(Cc2ccccc2)NS(=O)(=O)c2cccs2)c1 (centres undefined) | inactive: -29.5%
42 | CC(=O)c1ccc(Nc2cc(C)nc3nc(Cc4ccccc4)nn23)cc1 | inactive: -17%
43 | CCC1(C)CC(=O)c2c(ccc3oc(C(=O)Nc4ccc(C(C)=O)cc4)c(C)c23)O1 (centres undefined) | inactive: 7.22%
44 | CC(C)c1ccc(Nc2sc(C(=O)c3ccccc3)c(N)c2S(=O)(=O)c2ccccc2)cc1 | inactive: -16.8%
45 | CCc1nc2ccc(C(=O)N3CCN(c4cccc(Cl)c4)CC3)cc2nc1CC | inactive: -12.4%
46 | CC(C)CC(=O)Nc1nnc(S(=O)(=O)N2c3ccccc3CC2C)s1 (centres undefined) | inactive: 4.72%
47 | CCOc1ccc(C(=O)NCCc2csc(-c3cccc(C)c3)n2)cc1 | inactive: 16.3%
48 | Cc1ccc(N2CCN(C(=O)Cn3ncc4c([nH]c5ccc(C)cc54)c3=O)CC2)c(C)c1 | inactive: 9.92%

Row | Compound | activity change, negative = cytotoxicity
49 | CCCn1c2ccccc2c2cnn(CC(=O)Nc3cc(OC)c(OC)c(OC)c3)c(=O)c21 | inactive: -2.99%
50 | COc1cc2c(cc1OC)C(CC(=O)O)N(C(=O)Nc1cc(OC)c(OC)c(OC)c1)CC2 (centres undefined) | inactive: 9.84%
51 | CCc1ccc(C2=NN(CCC(=O)NCCc3ccccc3)C(=O)CC2)cc1 | inactive: 12.4%
52 | Cc1cc(C)c(/C=C/c2onc(C)c2S(=O)(=O)N2CCC(C(=O)Nc3cccc(C)c3C)CC2)c(C)c1 | inactive: 5.08%
53 | COc1ccccc1-c1noc(CSc2nnc(-c3ccccc3)n2-c2ccc(C)c(C)c2)n1 | inactive: 0.344%
54 | CCOC(=O)CNC(=O)Nc1cc(C(=O)NCc2ccc(C(C)C)cc2)ccc1N1CCCC1 | inactive: -0.75%
55 | Cc1cc(OCC(=O)Nc2sc3c(c2C#N)CCC(C)C3)ccc1Cl (centres undefined) | inactive: -3.83%
56 | Cc1ccc2[nH]c(=O)c3cc(C(=O)NCc4cccc(Cl)c4)sc3c2c1 | inactive: -4.66%
57 | O=C(CSc1ncc(-c2ccc(Cl)cc2)[nH]1)Nc1ccccc1F | inactive: 2.38%
58 | CCOc1ccc(C(=O)c2cn(Cc3cccc(OC)c3)c3cc4c(cc3c2=O)OCO4)cc1 | inactive: 5.17%
59 | CC(=O)c1ccc(NC(=O)CSc2nc(-c3ccccc3C)nc3c2c(=O)n(C)c(=O)n3C)cc1 | inactive: 7.01%
60 | CCOC(=O)c1c(C)oc2nc(C)nc(N(C)Cc3ccccc3)c12 | inactive: 0.868%
61 | Cc1ccc(NC(=O)CCS(=O)(=O)c2ccc3nc(C)sc3c2)c(C)c1 | inactive: 2.06%
62 | CCOc1ccc(CN2C(=O)c3ccccc3Sc3ccc(C(=O)NCCCN4CCOCC4)cc32)cc1 | inactive: 0.199%
63 | COc1ccc(S(=O)(=O)NCc2ccc3c(c2)CCN3C(C)=O)cc1OC | inactive: 2.39%
64 | COC(=O)c1ccc([C@H]2Nc3ccc(S(=O)(=O)Nc4ccc(F)cc4)cc3[C@H]3C=CC[C@H]32)cc1 | inactive: -2.94%
65 | Cc1ccc(OCC(=O)N(Cc2nc(-c3ccccc3)no2)C(C)C)cc1C | inactive: -0.094%
66 | CN(C)c1ncc(C(=O)NCc2ccccc2Cl)cn1 | inactive: -5.19%
67 | CCOc1ccc(S(=O)(=O)N(CC(=O)NCCc2ccc(OC)cc2)c2ccccc2)cc1 | inactive: 12.2%
68 | COc1ccccc1N1CCN(c2c(CN3CCCC3)c(=O)oc3ccccc23)CC1 | inactive: 7.96%
69 | Cc1ccc(NC(=O)CSc2nncn3c2cc2sccc23)cc1F | inactive: 7.7%
70 | Cc1ccc(-n2c(=O)c3c(c4cc(C)ccc4n3C)n(CC(=O)NCC3CCCO3)c2=O)cc1 (centres undefined) | inactive: 0.778%
71 | COc1cc(Cl)c(NC(=O)CC(C)S(=O)(=O)c2cc3c(cc2C)NC(=O)CO3)c(OC)c1 (centres undefined) | inactive: -6.65%
72 | Cc1ccc(-c2nc3n(n2)C(=O)CC(c2ccc(C)cc2)S3)cc1 (centres undefined) | inactive: -0.739%

Row | Compound | activity change, negative = cytotoxicity
73 | CC(C)c1ccc(NC(=O)c2cc(S(=O)(=O)N3CCc4ccccc4C3)ccc2F)cc1 | inactive: -3.6%
74 | CCCCOC(=O)c1ccc(NC2=NS(=O)(=O)c3ccccc32)cc1 | inactive: 13.9%
75 | CCOC(=O)c1c(C)oc2nc(C)nc(NCC3CCN(Cc4ccc(F)cc4)CC3)c12 | inactive: 24.6%
76 | COc1ccc(CNc2ncnc3c2cnn3-c2ccc(Cl)cc2)cc1 | inactive: 9.14%
77 | COc1cccc(-c2ccc3c(N)c(C(=O)c4ccc(F)cc4)sc3n2)c1 | inactive: 21.6%
78 | CC(NC(=O)CCCN1C(=O)CCn2nc(-c3cn(C)c4ccccc34)cc21)c1ccccc1 (centres undefined) | inactive: -24.7%
79 | Fc1ccc(-c2nc3c4c(-c5ccccc5)c(-c5ccccc5)oc4ncn3n2)cc1 | inactive: -8.97%
80 | O=C(Nc1ccc(Cl)c(-c2nc3ccccc3o2)c1)c1cccc2c(Cl)cccc12 | inactive: 3.26%
81 | Cc1ccc(CSC2=Nc3ccccc3C3=NC(CCC(=O)NCc4cccs4)C(=O)N23)c(C)c1 (centres undefined) | inactive: 3.68%
82 | COc1ccc(Nc2ccc3cc(S(=O)(=O)N4CCCC4)ccc3n2)cc1OC | inactive: -12%
83 | COc1ccccc1CNC(=O)CCCCn1c(=O)c2ccccc2n(Cc2ccccc2C)c1=O | inactive: -4.47%
84 | Cc1cc(C)cc(C(=O)Nc2cccc(-c3nc4ncccc4o3)c2C)c1 | inactive: -1.5%
85 | CC(C)(C)C1CCc2c(sc(NC(=O)c3ccccc3F)c2C(=O)NCc2ccco2)C1 (centres undefined) | inactive: -2.44%
86 | CC(=O)c1c(C)n(-c2ccc(Cl)cc2)c2ccc(OC(=O)COc3ccccc3)cc12 | inactive: -16.6%
87 | CC(=O)c1cccc(NC(=O)c2ccc(Cl)c(S(=O)(=O)N3CCOCC3)c2)c1 | inactive: 17.4%
88 | COc1ccc(-c2nc3scc(CCNS(=O)(=O)c4c(C)cc(C)cc4C)n3n2)cc1OC | inactive: 1.07%
89 | O=C(NCCn1cc(SCc2ccccc2)c2ccccc21)c1cccs1 | inactive: -8.86%
90 | CN(Cc1ccccc1)S(=O)(=O)c1nnc(NC(=O)c2ccccc2Cl)s1 | inactive: -8%
91 | CCOC(=O)c1cc2c(=O)n3ccccc3nc2n(CCOC)c1=NC(=O)c1cc2ccccc2o1 | inactive: -2.97%
92 | c1ccc(N2CCN(Cc3nnc(-c4ccc5c(c4)OCO5)o3)CC2)cc1 | inactive: 4.7%
93 | COc1ccc(C2=NS(=O)(=O)N(C)C(C(=O)Nc3ccc(OC(F)(F)F)cc3)=C2)cc1 | inactive: -13.7%
94 | CC(=O)c1cccc(NC(=O)CCc2nc3cccnc3n2Cc2cccs2)c1 | inactive: 6.68%
